This is an account of results in patent publication US20230203156A1, “ANTI-MDR1 ANTIBODIES AND USES THEREOF” (KENJOCKETY BIOTECHNOLOGY, INC., priority 2020, published 2023).

For data set [1], the target named is T1, human MDR1 (Homo sapiens, UniProt P08183).
T1 construct: expressed in transfected cells
Briefly: Binding of scFv-Fab-Fc bispecific antibodies to human MDR1 expressed on C6 cells. As for the experimental part:
The MDR1 overexpressing HEK 293T cells or C6 cells were generated by transfection with human MDR1 cDNA in a mammalian expression vector, followed by a multistep selection of transfectants for resistance to hygromycin at 0.2 mg/ml or 0.5 mg/ml. A MDR1 high-expressing clone was isolated using a FACS Aria, after incubation with a detecting antibody, MRK16-PE.
(§1) Cells expressing hABCB1 or hKT14 in stable cell lines were generated by transfecting rat fibroblast C6 cells. Because 5F9 and anti-ABCB1 antibodies have little affinity respectively to murine KT14 or ABCB1, the C6 cell line was used to measure affinity to the human targets expressed in it. KT14/Fc/KT14 Ab refers to single arm format of 5F9, i.e., one heavy chain and one light only.
(§2) Anti-MDR1 and anti-CD47 bispecific antibodies were generated in a scFv-Fab-Fc format as depicted in FIG. 20. The Fc region of the anti-CD47 arm of the bispecific antibody is depicted as having a “hole” created by amino acid substitution and the Fc region of the anti-MDR-1 arm includes a “knob” created by amino acid substitution. However, the knob and hole mutations may be reversed such that the anti-CD47 arm contains the knob and the anti-MDR1 arm contains the hole. Four bispecific antibodies were generated: • KT14.5F9hu scFv-B1.28.hu13 • KT14.B6H12hu scFv-B1.28.hu13 • KT14.5F9hu scFv-B1.261.hu1 • KT14.B6H12hu scFv-B1.261.hu1

The target in data set [2] is T2, human CD47 (Homo sapiens, UniProt Q08722).
T2 construct: expressed in transfected cells
As to the kind of experiment: Binding of scFv-Fab-Fc bispecific antibodies to human CD47 expressed on C6 cells.
Excerpt: as §1, §2

B1: KT14.B6H12hu scFv-B1.261.hu1: anti-MDR1 and anti-CD47 bispecific antibody in scFv-Fab-Fc format (protein)
scFv: EVQLVQSGAEVKKPGASVKVSCKASGFTFSGYGMSWVRQAPGQRLEWVATITSGGTYTYYPDSVKGRFTITRDNSASTLYMELSSLRSEDTAVYYCARSLAGNAMDYWGQGTMVTVSSGGGGSGGGGSGGGGSDIVMTQSPLSLPVTPGEPASISCRASQTISDYLHWYLQKPGQSPQLLIKFASQSISGIPDRFSGSGSGSDFTLKISRVEAEDVGVYYCQNGHGFPRTFGGGTKLEIKGGGGT[here human IgG1 Fc with changes without letters]
heavy: EVQLQESGPGLVKPSETLSLTCTVSGFSLTSYGVHWVRQPPGKGLEWLVVIWSDGSTTYNSALKSRLTISKDNSKNQVSLKLSSVTAADTAVYYCARHGRWLLQRGGAMDYWGQGTMVTVSSASTKGPSVFPLAPSSKSTSGGTAALGCLVKDYFPEPVTVSWNSGALTSGVHTFPAVLQSSGLYSLSSVVTVPSSSLGTQTYICNVNHKPSNTKVDKRVEPKSCDKTHTCPPCPAPELLGGPSVFLFPPKPKDTLMISRTPEVTCVVVDVSHEDPEVKFNWYVDGVEVHNAKTKPREEQYNSTYRVVSVLTVLHQDWLNGKEYKCKVSNKALPAPIEKTISKAKGQPREPQVCTLPPSREEMTKNQVSLSCAVKGFYPSDIAVEWESNGQPENNYKTTPPVLDSDGSFFLVSKLTVDKSRWQQGNVFSCSVMHEALHNHYTQKSLSLSPGK
light: DVQMTQSPSSLSASVGDRVTITCRASQNVGSYIAWYQQKPGKSPKALIYSASYRSSGVPSRFSGSGAGTDFTLTISSLQPEDFATYFCQQYNSYPLTFGGGTKLEIKRTVAAPSVFIFPPSDEQLKSGTASVVCLLNNFYPREAKVQWKVDNALQSGNSQESVTEQDSKDSTYSLSSTLTLSKADYEKHKVYACEVTHQGLSSPVTKSFNRGEC
B1: the “binding to human MDR1 expressed on the surface of C6 cells” value (shortened to “binding to human MDR1 expressed”) in data set [1] is “bind”. In data set [2], the “binding to human CD47 expressed on the surface of C6 cells” value (shortened to “binding to human CD47 expressed”) is reported as “bind”.

B2: KT14.5F9hu scFv-B1.28.hu13: anti-MDR1 and anti-CD47 bispecific antibody in scFv-Fab-Fc format (protein)
scFv: EVQLVESGGGLVQPGGSLRLSCAASGYTFTNYNMHWVRQAPGKGLEWMGTIYPGNDDTSYNQKFKDRVTISRDNSKNTLYLQMNSLRAEDTAVYYCARGGYRAMDYWGQGTLVTVSSGGGGSGGGGSGGGGSDIQMTQSPSSLSASVGDRVTITCRSSQSIVYSNGNTYLGWYQQKPGKSPKLLIYKVSNRFSGVPSRFSGSGSGTDFTLTISSLQPEDVATYYCFQGSHVPYTFGQGTKLEIKGGGGT[here human IgG1 Fc with changes without letters]
heavy: EVQLVESGGGLVKPGGSLRLSCAASGFTFGLYTMSWVRQAPGKGLEWVATISSGGSNTYYPDSVKGRFTISRDNAKNSLYLQMNSLRAEDTAVYYCARYYRYDAWFAYWGQGTLVTVSSASTKGPSVFPLAPSSKSTSGGTAALGCLVKDYFPEPVTVSWNSGALTSGVHTFPAVLQSSGLYSLSSVVTVPSSSLGTQTYICNVNHKPSNTKVDKRVEPKSCDKTHTCPPCPAPELLGGPSVFLFPPKPKDTLMISRTPEVTCVVVDVSHEDPEVKFNWYVDGVEVHNAKTKPREEQYNSTYRVVSVLTVLHQDWLNGKEYKCKVSNKALPAPIEKTISKAKGQPREPQVCTLPPSREEMTKNQVSLSCAVKGFYPSDIAVEWESNGQPENNYKTTPPVLDSDGSFFLVSKLTVDKSRWQQGNVFSCSVMHEALHNHYTQKSLSLSPGK
light: EVVLTQSPATLSLSPGERATLSCRSSQNIVHSTGNTYLDWYQQKPGQSPRLLIYKVSNRFSGVPARFSGSGSGTDFTLTISSLEPEDFAVYYCFQGSHIPRTFGGGTKLEIKRTVAAPSVFIFPPSDEQLKSGTASVVCLLNNFYPREAKVQWKVDNALQSGNSQESVTEQDSKDSTYSLSSTLTLSKADYEKHKVYACEVTHQGLSSPVTKSFNRGEC
For the molecule B2, in data set [1], the “binding to human MDR1 expressed” value is on record as “bind”. Besides, in data set [2], the “binding to human CD47 expressed” value is given as “bind”.

B3: KT14.5F9hu scFv-B1.261.hu1: anti-MDR1 and anti-CD47 bispecific antibody in scFv-Fab-Fc format (protein)
scFv: EVQLVESGGGLVQPGGSLRLSCAASGYTFTNYNMHWVRQAPGKGLEWMGTIYPGNDDTSYNQKFKDRVTISRDNSKNTLYLQMNSLRAEDTAVYYCARGGYRAMDYWGQGTLVTVSSGGGGSGGGGSGGGGSDIQMTQSPSSLSASVGDRVTITCRSSQSIVYSNGNTYLGWYQQKPGKSPKLLIYKVSNRFSGVPSRFSGSGSGTDFTLTISSLQPEDVATYYCFQGSHVPYTFGQGTKLEIKGGGGT[here human IgG1 Fc with changes without letters]
heavy: EVQLQESGPGLVKPSETLSLTCTVSGFSLTSYGVHWVRQPPGKGLEWLVVIWSDGSTTYNSALKSRLTISKDNSKNQVSLKLSSVTAADTAVYYCARHGRWLLQRGGAMDYWGQGTMVTVSSASTKGPSVFPLAPSSKSTSGGTAALGCLVKDYFPEPVTVSWNSGALTSGVHTFPAVLQSSGLYSLSSVVTVPSSSLGTQTYICNVNHKPSNTKVDKRVEPKSCDKTHTCPPCPAPELLGGPSVFLFPPKPKDTLMISRTPEVTCVVVDVSHEDPEVKFNWYVDGVEVHNAKTKPREEQYNSTYRVVSVLTVLHQDWLNGKEYKCKVSNKALPAPIEKTISKAKGQPREPQVCTLPPSREEMTKNQVSLSCAVKGFYPSDIAVEWESNGQPENNYKTTPPVLDSDGSFFLVSKLTVDKSRWQQGNVFSCSVMHEALHNHYTQKSLSLSPGK
light: DVQMTQSPSSLSASVGDRVTITCRASQNVGSYIAWYQQKPGKSPKALIYSASYRSSGVPSRFSGSGAGTDFTLTISSLQPEDFATYFCQQYNSYPLTFGGGTKLEIKRTVAAPSVFIFPPSDEQLKSGTASVVCLLNNFYPREAKVQWKVDNALQSGNSQESVTEQDSKDSTYSLSSTLTLSKADYEKHKVYACEVTHQGLSSPVTKSFNRGEC
Regarding B3, the “binding to human MDR1 expressed” value in data set [1] is given as “bind”. In addition, the “binding to human CD47 expressed” value in data set [2] was “bind”.

B4: KT14.B6H12hu scFv-B1.28.hu13: anti-MDR1 and anti-CD47 bispecific antibody in scFv-Fab-Fc format (protein)
scFv: EVQLVQSGAEVKKPGASVKVSCKASGFTFSGYGMSWVRQAPGQRLEWVATITSGGTYTYYPDSVKGRFTITRDNSASTLYMELSSLRSEDTAVYYCARSLAGNAMDYWGQGTMVTVSSGGGGSGGGGSGGGGSDIVMTQSPLSLPVTPGEPASISCRASQTISDYLHWYLQKPGQSPQLLIKFASQSISGIPDRFSGSGSGSDFTLKISRVEAEDVGVYYCQNGHGFPRTFGGGTKLEIKGGGGT[here human IgG1 Fc with changes without letters]
heavy: EVQLVESGGGLVKPGGSLRLSCAASGFTFGLYTMSWVRQAPGKGLEWVATISSGGSNTYYPDSVKGRFTISRDNAKNSLYLQMNSLRAEDTAVYYCARYYRYDAWFAYWGQGTLVTVSSASTKGPSVFPLAPSSKSTSGGTAALGCLVKDYFPEPVTVSWNSGALTSGVHTFPAVLQSSGLYSLSSVVTVPSSSLGTQTYICNVNHKPSNTKVDKRVEPKSCDKTHTCPPCPAPELLGGPSVFLFPPKPKDTLMISRTPEVTCVVVDVSHEDPEVKFNWYVDGVEVHNAKTKPREEQYNSTYRVVSVLTVLHQDWLNGKEYKCKVSNKALPAPIEKTISKAKGQPREPQVCTLPPSREEMTKNQVSLSCAVKGFYPSDIAVEWESNGQPENNYKTTPPVLDSDGSFFLVSKLTVDKSRWQQGNVFSCSVMHEALHNHYTQKSLSLSPGK
light: EVVLTQSPATLSLSPGERATLSCRSSQNIVHSTGNTYLDWYQQKPGQSPRLLIYKVSNRFSGVPARFSGSGSGTDFTLTISSLEPEDFAVYYCFQGSHIPRTFGGGTKLEIKRTVAAPSVFIFPPSDEQLKSGTASVVCLLNNFYPREAKVQWKVDNALQSGNSQESVTEQDSKDSTYSLSSTLTLSKADYEKHKVYACEVTHQGLSSPVTKSFNRGEC
With B4, in data set [1], the “binding to human MDR1 expressed” value is recorded as “bind”. Further, in data set [2], the “binding to human CD47 expressed” value is reported as “bind”.
